According to the supplement of paper PMC12067230:
Single values of this set are uncertain.
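Note: [psi-pin-] Saccharomyces cerevisiae expressing SupN fusions, induced by 100 µM Cu2SO4, selected 7 d at 30 °C without adenine and uracil, scored by deep sequencing of output versus input.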

Test: amyloid nucleation score relative to library mode (yeast Sup35 reporter selection) (log enrichment difference); higher = more amyloid nucleation; sequences are the first 22 residues of the Bri2 peptide extended by up to 12 random residues
Conditions: random library (experiment): 1;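 active = nucleation score significantly above 0 at FDR 0.05; inactive = not significantly above 0 or absent from output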
For EASNCFAIRHFENKFAVETLICPCCKVSVCYPWE, the amyloid nucleation score was “inactive”.
For EASNCFAIRHFENKFAVETLICGNADWNGGCRAW, the amyloid nucleation score was 2.44.
In the case of EASNCFAIRHFENKFAVETLICARKWQGINGLRV, the amyloid nucleation score is reported as “inactive”.
For EASNCFAIRHFENKFAVETLICVVEQWSKAGMEK, the amyloid nucleation score was -0.25.
With EASNCFAIRHFENKFAVETLICDGCKAPGREPSD the amyloid nucleation score was “inactive”.
With EASNCFAIRHFENKFAVETLICRHYLKDQSHARR the amyloid nucleation score was “inactive”.
For EASNCFAIRHFENKFAVETLICKVEFEDGFGLCS, the amyloid nucleation score was “inactive”.
For EASNCFAIRHFENKFAVETLICRLTCFAQYGIKF, the amyloid nucleation score was “inactive”.
In the case of EASNCFAIRHFENKFAVETLICHLGFGSRRGTSS, the amyloid nucleation score is reported as 1.97.
In the case of EASNCFAIRHFENKFAVETLICPPQDRDCLTDRH, the amyloid nucleation score is reported as “inactive”.
For EASNCFAIRHFENKFAVETLICREFRVKDSILPR, the amyloid nucleation score was “inactive”.
EASNCFAIRHFENKFAVETLICAVV showed an amyloid nucleation score of 1.75.
With EASNCFAIRHFENKFAVETLICECGRSGLGLSQC the amyloid nucleation score was “inactive”.
In the case of EASNCFAIRHFENKFAVETLICPTEARVLVTAAV, the amyloid nucleation score is reported as “inactive”.
In the case of EASNCFAIRHFENKFAVETLICAMSLVDS, the amyloid nucleation score is reported as “inactive”.
Work on EASNCFAIRHFENKFAVETLICYVCTDEF yielded an amyloid nucleation score of 8.17.
For EASNCFAIRHFENKFAVETLICPVYGSTRHVDDG, the amyloid nucleation score was “inactive”.
With EASNCFAIRHFENKFAVETLICAPGCGTGPARSR the amyloid nucleation score was “inactive”.
EASNCFAIRHFENKFAVETLICRKHSHSWDLAVR gave an amyloid nucleation score of -0.736.
For EASNCFAIRHFENKFAVETLICGSVGFPDCHVAG, the amyloid nucleation score was “inactive”.
With EASNCFAIRHFENKFAVETLICYWWSYLLCTGWR the amyloid nucleation score was “inactive”.
In the case of EASNCFAIRHFENKFAVETLICVRVTRSWTCVY, the amyloid nucleation score is reported as 4.05.
In the case of EASNCFAIRHFENKFAVETLICDGVLRSMQQVSH, the amyloid nucleation score is reported as “inactive”.
Sequence EASNCFAIRHFENKFAVETLICTVRSHLRSGRKW has an amyloid nucleation score of 2.28.
With EASNCFAIRHFENKFAVETLICCLGVVMVRGEGC the amyloid nucleation score was 5.29.
For EASNCFAIRHFENKFAVETLICWHLRKPVTKGWW, the amyloid nucleation score was “inactive”.
For EASNCFAIRHFENKFAVETLICLKIVCCSYPYSG, the amyloid nucleation score was 5.76.
For EASNCFAIRHFENKFAVETLICVNSIGWRLRACA, the amyloid nucleation score was “inactive”.
In the case of EASNCFAIRHFENKFAVETLICLPVSGALDGYTR, the amyloid nucleation score is reported as “inactive”.
For EASNCFAIRHFENKFAVETLICLYRIKIDFVGTR, the amyloid nucleation score was 2.73.
With EASNCFAIRHFENKFAVETLICVNDLVVGDSRVA the amyloid nucleation score was “inactive”.
With EASNCFAIRHFENKFAVETLICNACSIFDYTRHL the amyloid nucleation score was 8.29.
EASNCFAIRHFENKFAVETLICCLRLT gave an amyloid nucleation score of 4.49.
In the case of EASNCFAIRHFENKFAVETLICPVSGTSVCNEHA, the amyloid nucleation score is reported as “inactive”.
In the case of EASNCFAIRHFENKFAVETLICCLVMRYLLSTDQ, the amyloid nucleation score is reported as “inactive”.
EASNCFAIRHFENKFAVETLICLLS gave an amyloid nucleation score of 7.38.
For EASNCFAIRHFENKFAVETLICGFARSRVVACTS, the amyloid nucleation score was “inactive”.
For EASNCFAIRHFENKFAVETLICNACRRGKQGLRT, the amyloid nucleation score was “inactive”.
For EASNCFAIRHFENKFAVETLICFRLYAYVLEYTL, the amyloid nucleation score was “inactive”.
For EASNCFAIRHFENKFAVETLICLCIQVWKCRLRQ, the amyloid nucleation score was “inactive”.
With EASNCFAIRHFENKFAVETLICVSGRVQNGPLSR the amyloid nucleation score was “inactive”.
EASNCFAIRHFENKFAVETLICVGCSLAARMSRR gave an amyloid nucleation score of 5.47.
EASNCFAIRHFENKFAVETLICMYCSRSEGCVNT gave an amyloid nucleation score of 5.43.
In the case of EASNCFAIRHFENKFAVETLICKAYWPRCDAWVM, the amyloid nucleation score is reported as “inactive”.
In the case of EASNCFAIRHFENKFAVETLICKGRLAYGWMLGS, the amyloid nucleation score is reported as “inactive”.
EASNCFAIRHFENKFAVETLICVRVQLLCGSR gave an amyloid nucleation score of 2.74.
With EASNCFAIRHFENKFAVETLICMYTAKRTQVILP the amyloid nucleation score was “inactive”.
In the case of EASNCFAIRHFENKFAVETLICLWT, the amyloid nucleation score is reported as 1.82.
EASNCFAIRHFENKFAVETLICLGNAVEDDDSTS showed an amyloid nucleation score of 2.83.
EASNCFAIRHFENKFAVETLICFGGLGL gave an amyloid nucleation score of 7.56.
EASNCFAIRHFENKFAVETLICDANCQLWLSVCS showed an amyloid nucleation score of 0.428.
With EASNCFAIRHFENKFAVETLICCVWCYCGVMSRI the amyloid nucleation score was 1.37.
With EASNCFAIRHFENKFAVETLICNSMFVLVEVFSA the amyloid nucleation score was -0.0194.
For EASNCFAIRHFENKFAVETLICPSRYWPWGTGWT, the amyloid nucleation score was “inactive”.
In the case of EASNCFAIRHFENKFAVETLICNDGTYCSIRQAQ, the amyloid nucleation score is reported as 0.703.

Same assay, conditions: random library (experiment): 2
Work on EASNCFAIRHFENKFAVETLICFTVLCGSDSSVL yielded an amyloid nucleation score of 7.73.
With EASNCFAIRHFENKFAVETLICFNEHR the amyloid nucleation score was “inactive”.
Work on EASNCFAIRHFENKFAVETLICVHTICL yielded an amyloid nucleation score of 4.45.
With EASNCFAIRHFENKFAVETLICLSETSVVACGMP the amyloid nucleation score was “inactive”.
EASNCFAIRHFENKFAVETLICIPYYLTTDPVKR gave an amyloid nucleation score of 0.
For EASNCFAIRHFENKFAVETLICADTFHY, the amyloid nucleation score was -0.678.
In the case of EASNCFAIRHFENKFAVETLICFKACTRRNFGIS, the amyloid nucleation score is reported as “inactive”.
Sequence EASNCFAIRHFENKFAVETLICCDYC has an amyloid nucleation score of 7.54.
For EASNCFAIRHFENKFAVETLICLRSSIVF, the amyloid nucleation score was “inactive”.
For EASNCFAIRHFENKFAVETLICLCQAFQIKYFEG, the amyloid nucleation score was 0.821.
With EASNCFAIRHFENKFAVETLICVHLIIR the amyloid nucleation score was “inactive”.
EASNCFAIRHFENKFAVETLICFSA showed an amyloid nucleation score of 5.23.
In the case of EASNCFAIRHFENKFAVETLICVELGLSFINCVL, the amyloid nucleation score is reported as 3.61.
Sequence EASNCFAIRHFENKFAVETLICVVKAQYAMSVNR has an amyloid nucleation score of 2.34.
In the case of EASNCFAIRHFENKFAVETLICCVYSIRYYFFRY, the amyloid nucleation score is reported as “inactive”.
With EASNCFAIRHFENKFAVETLICVVSSIF the amyloid nucleation score was “inactive”.
In the case of EASNCFAIRHFENKFAVETLICYYIVFSERSFVE, the amyloid nucleation score is reported as “inactive”.
EASNCFAIRHFENKFAVETLICRSDVFHNYLGLQ gave an amyloid nucleation score of 2.02.
With EASNCFAIRHFENKFAVETLICWEKSVDGLALVC the amyloid nucleation score was “inactive”.
In the case of EASNCFAIRHFENKFAVETLICDLIYNTSPSIDP, the amyloid nucleation score is reported as “inactive”.
Work on EASNCFAIRHFENKFAVETLICFVEFERDQHSVH yielded an amyloid nucleation score of 4.26.
For EASNCFAIRHFENKFAVETLICCEYFLRGPSIRL, the amyloid nucleation score was “inactive”.
Sequence EASNCFAIRHFENKFAVETLICDFGFNMGRILDE has an amyloid nucleation score of 5.72.
Work on EASNCFAIRHFENKFAVETLICNSLSCYVHTFYK yielded an amyloid nucleation score of 6.18.
For EASNCFAIRHFENKFAVETLICNLVCGYHIRNSG, the amyloid nucleation score was 5.33.
In the case of EASNCFAIRHFENKFAVETLICHGRNGVVIMDEV, the amyloid nucleation score is reported as “inactive”.
With EASNCFAIRHFENKFAVETLICHAAYEIVWKYCV the amyloid nucleation score was “inactive”.
With EASNCFAIRHFENKFAVETLICGDSKNLVQLVL the amyloid nucleation score was -0.113.

Same assay, conditions: random library (experiment): 3
For EASNCFAIRHFENKFAVETLICAVQRSGCGAYVT, the amyloid nucleation score was “inactive”.
EASNCFAIRHFENKFAVETLICFVIPVLDSRQ gave an amyloid nucleation score of 8.24.
Work on EASNCFAIRHFENKFAVETLICRDWTAGKDGTRW yielded an amyloid nucleation score of 3.51.
In the case of EASNCFAIRHFENKFAVETLICGPLRMTGSHWLE, the amyloid nucleation score is reported as “inactive”.
In the case of EASNCFAIRHFENKFAVETLICRKRSRRPQKGAL, the amyloid nucleation score is reported as “inactive”.
EASNCFAIRHFENKFAVETLICEVQYSDVDSCRT showed an amyloid nucleation score of 4.76.
For EASNCFAIRHFENKFAVETLICHMTGMFNIKGMV, the amyloid nucleation score was “inactive”.
Sequence EASNCFAIRHFENKFAVETLICEAHAGWDQRAHI has an amyloid nucleation score of 1.95.
For EASNCFAIRHFENKFAVETLICGNRM, the amyloid nucleation score was “inactive”.
In the case of EASNCFAIRHFENKFAVETLICRGCKKVGKILDT, the amyloid nucleation score is reported as “inactive”.
With EASNCFAIRHFENKFAVETLICDTTVVRNYLTFR the amyloid nucleation score was “inactive”.
With EASNCFAIRHFENKFAVETLICPMSR the amyloid nucleation score was “inactive”.
Work on EASNCFAIRHFENKFAVETLICFGSSIEGGPGRG yielded an amyloid nucleation score of 7.7.
Sequence EASNCFAIRHFENKFAVETLICIDSLLRNWGPQW has an amyloid nucleation score of 4.62.
For EASNCFAIRHFENKFAVETLICVRKVRNKQLRFL, the amyloid nucleation score was “inactive”.
For EASNCFAIRHFENKFAVETLICDRARGKVWMVGP, the amyloid nucleation score was “inactive”.
For EASNCFAIRHFENKFAVETLICYCRYV, the amyloid nucleation score was “inactive”.
With EASNCFAIRHFENKFAVETLICFVVLFRIHPYWV the amyloid nucleation score was “inactive”.
In the case of EASNCFAIRHFENKFAVETLICVVYYVAPLKFEM, the amyloid nucleation score is reported as “inactive”.
Work on EASNCFAIRHFENKFAVETLICVHVPALDMGWLR yielded an amyloid nucleation score of 1.09.
For EASNCFAIRHFENKFAVETLICQWQGAKDADRRP, the amyloid nucleation score was “inactive”.
With EASNCFAIRHFENKFAVETLICLQWGRGFERTSP the amyloid nucleation score was 1.64.
EASNCFAIRHFENKFAVETLICNMYLFASLTCDS gave an amyloid nucleation score of 6.34.
For EASNCFAIRHFENKFAVETLICMWRACGEEPAIW, the amyloid nucleation score was “inactive”.
EASNCFAIRHFENKFAVETLICPITCTDLSGRGW showed an amyloid nucleation score of 7.08.
In the case of EASNCFAIRHFENKFAVETLICTRQGSSTALGRV, the amyloid nucleation score is reported as “inactive”.
For EASNCFAIRHFENKFAVETLICVAALVGDGVVVR, the amyloid nucleation score was “inactive”.
With EASNCFAIRHFENKFAVETLICLCSAYAYNRWYS the amyloid nucleation score was “inactive”.
Work on EASNCFAIRHFENKFAVETLICYSRCSRQGTASE yielded an amyloid nucleation score of 2.09.
For EASNCFAIRHFENKFAVETLICCLEHISATYTKQ, the amyloid nucleation score was 2.57.
For EASNCFAIRHFENKFAVETLICLCACQYLPTRCV, the amyloid nucleation score was 6.87.
Work on EASNCFAIRHFENKFAVETLICLCQRPHIRDCCG yielded an amyloid nucleation score of 1.19.
In the case of EASNCFAIRHFENKFAVETLICFIVLNSGTMAVR, the amyloid nucleation score is reported as “inactive”.
For EASNCFAIRHFENKFAVETLICHWTRLIVKVVLW, the amyloid nucleation score was “inactive”.
In the case of EASNCFAIRHFENKFAVETLICCWWMMINWGQVR, the amyloid nucleation score is reported as “inactive”.
With EASNCFAIRHFENKFAVETLICQYRL the amyloid nucleation score was “inactive”.
